Measured values: the supplement of paper PMC7826260
Some of the results follow. One pool of 16,384 single-stranded DNAs met each Rep nickase domain in vitro at 3 µM enzyme and 37 °C for 1 h; the strands have 90 letters, of which the middle is given. Numbers give uncut DNA relative to the enzyme-free pool, as log2; more negative means more cut, near 0 not cut, and no call is made. The scaling is to total reads; uncut strands gain when others are lost, and binding without cutting may add a little.

Tests used:
Test in all cases: uncleaved DNA left, log2 of reads against the no-enzyme library (log2 ratio); higher = less cleavage (more negative = more Rep cleavage of the k-mer); sequences stand for … in CTCGTCCG…ACCGGAGA
[1] = system: T1, Rep nickase domain of Muscovy duck circovirus
T1 sequence (protein, residues 1-111, tag omitted): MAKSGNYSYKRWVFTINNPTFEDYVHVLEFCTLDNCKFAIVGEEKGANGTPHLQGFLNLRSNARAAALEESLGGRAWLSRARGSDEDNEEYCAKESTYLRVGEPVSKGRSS
Method: (§1)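 A pool of 90-nt single-stranded DNAs with seven random bases just before the constant AC of the nick site (name = the seven bases) was cut by 3 µM recombinant His6-SUMO-tagged Rep nickase domain (300 nM DNA, 50 mM HEPES pH 8.0, 50 mM NaCl, 1 mM MnCl2, 1 h, 37 °C, three replicates). Uncut DNA was amplified and sequenced.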

[2] = system: T2, Rep nickase domain of banana bunchy top virus
T2 sequence (protein, residues 1-94, tag omitted): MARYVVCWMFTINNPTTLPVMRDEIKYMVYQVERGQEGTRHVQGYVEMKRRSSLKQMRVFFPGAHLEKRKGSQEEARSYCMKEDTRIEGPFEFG
Method: as §1

[3] = system: T3, Rep nickase domain of cabbage leaf curl virus
T3 sequence (protein, residues 1-116, tag omitted): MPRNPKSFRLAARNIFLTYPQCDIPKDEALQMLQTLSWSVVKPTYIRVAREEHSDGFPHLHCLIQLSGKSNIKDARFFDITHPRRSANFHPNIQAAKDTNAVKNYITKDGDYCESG
Method: as §1

[4] = system: T4, Rep nickase domain of chickpea chlorotic dwarf virus
T4 sequence (protein, residues 1-124, tag omitted): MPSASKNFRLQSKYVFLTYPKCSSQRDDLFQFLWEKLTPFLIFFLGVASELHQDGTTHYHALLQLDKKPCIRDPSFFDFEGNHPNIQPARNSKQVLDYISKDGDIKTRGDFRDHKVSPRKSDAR
Method: as §1

[5] = system: T5, Rep nickase domain of faba bean necrotic yellows virus
T5 sequence (protein, residues 1-98, tag omitted): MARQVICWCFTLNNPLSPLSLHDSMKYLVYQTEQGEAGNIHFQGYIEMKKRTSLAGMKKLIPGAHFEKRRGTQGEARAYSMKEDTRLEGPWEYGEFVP
Method: as §1

[6] = system: T6, Rep nickase domain of maize striate mosaic virus
T6 sequence (protein, residues 1-117, tag omitted): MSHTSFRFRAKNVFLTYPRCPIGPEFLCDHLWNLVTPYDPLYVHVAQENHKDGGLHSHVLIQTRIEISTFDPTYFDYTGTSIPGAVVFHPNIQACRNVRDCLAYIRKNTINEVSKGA
Method: as §1

[7] = system: T7, Rep nickase domain of porcine circovirus 2
T7 sequence (protein, residues 2-116, tag omitted): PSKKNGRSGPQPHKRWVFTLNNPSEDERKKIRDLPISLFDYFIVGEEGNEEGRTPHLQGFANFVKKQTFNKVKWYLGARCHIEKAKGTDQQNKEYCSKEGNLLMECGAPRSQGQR
Method: as §1

[8] = system: T8, Rep nickase domain of tomato golden mosaic virus
T8 sequence (protein, residues 1-124, tag omitted): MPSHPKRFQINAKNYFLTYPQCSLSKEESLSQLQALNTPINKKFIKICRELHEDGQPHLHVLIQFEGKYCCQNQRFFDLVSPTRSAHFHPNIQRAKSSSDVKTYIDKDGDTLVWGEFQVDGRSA
Method: as §1

[9] = system: T9, Rep nickase domain of tomato yellow leaf curl virus
T9 sequence (protein, residues 1-136, tag omitted): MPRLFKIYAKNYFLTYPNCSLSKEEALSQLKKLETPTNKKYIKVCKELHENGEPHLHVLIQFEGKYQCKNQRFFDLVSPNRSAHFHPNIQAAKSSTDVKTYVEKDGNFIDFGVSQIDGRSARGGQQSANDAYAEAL
Method: as §1

[10] = system: T10, Rep nickase domain of wheat dwarf virus
T10 sequence (protein, residues 1-137, tag omitted): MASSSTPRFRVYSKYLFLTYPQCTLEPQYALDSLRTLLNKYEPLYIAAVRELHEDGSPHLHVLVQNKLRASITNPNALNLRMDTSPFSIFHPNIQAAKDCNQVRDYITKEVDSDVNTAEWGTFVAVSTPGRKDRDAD
Method: as §1

Sequence | uncleaved DNA left (log2) [1] | uncleaved DNA left (log2) [2] | uncleaved DNA left (log2) [3] | uncleaved DNA left (log2) [4] | uncleaved DNA left (log2) [5] | uncleaved DNA left (log2) [6] | uncleaved DNA left (log2) [7] | uncleaved DNA left (log2) [8] | uncleaved DNA left (log2) [9] | uncleaved DNA left (log2) [10]
AGCGTCA | -0.0365 | 0.0891 | -0.0232 | 0.279 | 0.0479 | 1.1 | -0.232 | 0.0807 | -0.0717 | 0.0444
CCTTCAA | -0.00349 | 0.0338 | -0.0455 | -0.413 | 0.00791 | -0.764 | -0.159 | -0.0806 | 0.0676 | 0.031
TGGGACA | 0.19 | 0.126 | 0.986 | 2.19 | 0.0701 | 2.37 | 0.246 | 0.189 | 0.0045 | 0.196
AAGAAAG | 0.137 | 0.0864 | -0.497 | -0.271 | 0.193 | -0.928 | 0.263 | 0.156 | 0.123 | -0.0288
CATGGGC | 0.0145 | -0.0678 | -0.359 | -0.196 | -0.164 | -1.02 | 0.0522 | -0.172 | -0.15 | -0.0838
GAACTTG | 0.0639 | -0.0492 | -0.126 | -0.716 | -0.0764 | -0.267 | -0.00228 | 0.0184 | -0.0573 | 0.0159
TAGTACT | -3.78 | -3.98 | -3.49 | -3.26 | -3.86 | -1.55 | -4.28 | -2.87 | 0.0909 | -2.41
TGGCTTT | 0.075 | -0.0354 | 0.5 | -0.119 | 0.09 | 1.28 | -0.0397 | -0.047 | 0.207 | 0.193
ACGATGG | 0.0137 | -0.0773 | -0.598 | -0.315 | -0.0766 | -0.886 | 0.000696 | -0.0839 | -0.0433 | 0.00622
CCGGAGT | -0.0337 | -0.126 | -0.0202 | 0.13 | -0.0115 | -0.0894 | -0.193 | -0.0489 | -0.222 | -0.158
ACACAAC | -0.0029 | 0.042 | -0.153 | -1.78 | 0.054 | -0.81 | 0.167 | 0.167 | -0.104 | 0.0556
TTTAGCG | 0.0457 | -0.127 | -0.742 | 0.531 | -0.0363 | -0.776 | 0.131 | -0.135 | -0.0388 | -0.0922
GTCCGGT | -0.00484 | -0.0351 | 0.298 | 0.804 | -0.144 | 1.55 | 0.0184 | 0.0455 | 0.0601 | 0.0124
CCGCCCA | -0.239 | -0.0483 | -0.0358 | -0.693 | -0.0878 | -0.517 | -0.287 | -0.0773 | -0.139 | -0.125
TGCCGTT | 0.0904 | 0.107 | 0.00405 | -0.772 | -0.101 | -0.438 | -0.142 | 0.119 | 0.149 | 0.0285
TAAGGGG | 0.108 | 0.0232 | 0.274 | 0.567 | 0.0162 | 0.486 | 0.195 | 0.061 | -0.0891 | 0.0233
TAGGCCA | 0.0613 | 0.0645 | 0.166 | -0.893 | -0.0145 | 0.515 | -0.359 | 0.0192 | 0.0835 | -0.00393
ATCAGCT | -0.059 | -0.0238 | -0.515 | -1.46 | -0.0371 | -1.04 | 0.125 | -0.00816 | -0.0555 | -0.0714
AGATACA | -0.285 | 0.0508 | 0.025 | -1.16 | -0.0612 | 0.0811 | -0.235 | -0.0544 | 0.0168 | 0.0146
AGGTGCC | -0.0572 | -0.0403 | -0.0968 | 0.00347 | -0.169 | -0.495 | 0.0386 | -0.0767 | -0.0164 | -0.0649
ACCCTGA | -0.0523 | -0.136 | -0.299 | -0.111 | -0.156 | -0.677 | -0.187 | -0.148 | -0.274 | -0.122
TGAGCGA | -0.0651 | 0.0839 | -0.362 | -0.401 | -0.0123 | -0.929 | 0.0297 | 0.0494 | 0.022 | -0.0127
AGTAACC | 0.0263 | 0.103 | -0.0539 | -0.124 | 0.0152 | 0.292 | -0.56 | 0.123 | 0.0788 | 0.0309
CGTGCGA | -0.0488 | -0.0179 | -0.676 | -0.365 | 0.00306 | -0.804 | 0.0657 | -0.00645 | 0.0344 | -0.114
AAGACAA | 0.17 | 0.169 | 0.351 | 0.642 | 0.101 | 0.785 | 0.104 | 0.146 | 0.106 | 0.281
AGAAAGG | 0.114 | 0.137 | 0.177 | 0.733 | 0.0548 | 0.0203 | 0.235 | 0.199 | 0.11 | 0.2
CTTTCTT | -3.12 | -0.686 | -0.309 | -2.72 | -0.0583 | -0.703 | -2.92 | -0.241 | -0.031 | -0.305
GCATGCG | -0.00544 | -0.119 | 0.229 | 1.45 | 0.0397 | 1.57 | 0.127 | -0.196 | 0.00416 | -0.0473
TACGGGC | -0.0656 | -0.00912 | 0.16 | 0.157 | 0.052 | 0.0439 | 0.167 | -0.0874 | -0.0027 | -0.0883
